Measurements: US20260078155A1 (NAVIGO PROTEINS, published 2026)
Residue numbers refer to the chain shown, from its start.

B1: Affilin-199488-Dota (designed binder)
chain: MQIFVKTLEEKYITLEVEPSDTIENVKARVQDKEGIPPDQQKLLWYGEQLEDGRTLSDYNILGGAVLKLQLRLRAAGGSGGGSGGGSGGGSGMQIFVKTLEEKYITLEVEPSDTIENVKARVQDKEGIPPDQQKLLWYGEQLEDGRTLSDYNILGGAVLKLQLRLRAA
modifications: DOTA label (Maleimide-DOTA, Example 7); coupling residue not stated for this construct
B2: Affilin-199490-Dota (designed binder)
chain: B1 chain with T14A, R29K, K42E, T106A, R121K, K134E
modifications: DOTA label (Maleimide-DOTA, Example 7); coupling residue not stated for this construct
notes: Maleimide coupling needs a cysteine
B3: Affilin-199487 (designed binder)
chain: MQIFVKTLEEKYITLEVEPSDTIENVKARVQDKEGIPPDQQKLLWYGEQLEDGRTLSDYNILGGAVLKLQLRLRAAMQIFVKTLEEKYITLEVEPSDTIENVKARVQDKEGIPPDQQKLLWYGEQLEDGRTLSDYNILGGAVLKLQLRLRAA
B4: Affilin-199479 (designed binder)
chain: B3 chain with K11R, E24G, R29K, V30I, G64D, K87R, E100G, R105K, V106I, G140D
B5: Affilin-199489 (designed binder)
chain: B3 chain with T14A, R29K, K42E, T90A, R105K, K118E
B6: Affilin-199488 (designed binder)
chain: B1 chain
B7: Affilin 202521 (designed binder)
chain: MQIFVKTLEEKYIALEVEPSDTIENVKAKVQDKEGIPPDQQELLWYGEQLEDGRTLSDYNILGGAVLKLQLRLRAAGGSGGGSGGGSGGGSGMQIFVKTLEEKYIALEVEPSDTIENVKAKVQDKEGIPPDQQELLWYGEQLEDGRTLSDYNILGGAVLKLQLRLRAASAC
B8: Affilin 202521-Dota-Lu (designed binder)
chain: B7 chain
modifications: Dota on the C-terminal coupling sequence "SAC" (cysteine), labeled with Lutetium Lu3+
B9: Affilin-199477 (designed binder)
chain: B3 chain with R29K, V30I, E48K, R105K, V106I, E124K
B10: Affilin-199480 (designed binder)
chain: MQIFVKTLEERYITLEVEPSDTIGNVKAKIQDKEGIPPDQQKLLWYGEQLEDGRTLSDYNILGDAVLKLQLRLRAAGGSGGGSGGGMQIFVKTLEERYITLEVEPSDTIGNVKAKIQDKEGIPPDQQKLLWYGEQLEDGRTLSDYNILGDAVLKLQLRLRAA
B11: Affilin-199478 (designed binder)
chain: B1 chain with R29K, V30I, E48K, R121K, V122I, E140K
B12: Affilin-199481 (designed binder)
chain: B1 chain with K11R, E24G, R29K, V30I, G64D, K103R, E116G, R121K, V122I, G156D
B13: Affilin-199482 (designed binder)
chain: MQIFVKTLEERYITLEVEPSDTIGNVKAKIQDKEGIPPDQQKLLWYGEQLEDGRTLSDYNILGDAVLKLQLRLRAAGGSGGGSGGGSGGGSGGGSGMQIFVKTLEERYITLEVEPSDTIGNVKAKIQDKEGIPPDQQKLLWYGEQLEDGRTLSDYNILGDAVLKLQLRLRAA
B14: Affilin-197126 (designed binder)
chain: MQIFVKTLEEKYITLEVEPSDTIANVKAKIQDKEGIPPDQQKLLWYGKQLEDGRTLSDYNILGGAVLKLPLRLRAA
notes: Ubiquitin mutein, monomer
B15: Affilin-189864 (designed binder)
chain: MQIFVVTRLYKEITLEVEPSDTIENVKAKIQDKEGIPPDQQYLYWDGKQLEDGRTLSDYNIRFGDHLDLTLGLRAA
notes: Ubiquitin mutein, monomer
B16: Affilin-181919 (designed binder)
chain: B15 chain with D65Y
notes: Ubiquitin mutein, monomer
B17: Affilin-189853 (designed binder)
chain: B15 chain with I13T, T14A, D65Y
notes: Ubiquitin mutein, monomer
B18: Affilin-189872 (designed binder)
chain: B15 chain with W45G
notes: Ubiquitin mutein, monomer
B19: Affilin-187803 (designed binder)
chain: MQIFVQTYNIKDITLEVEPSDTIENVKAKIQDKEGIPPDQQMLFWSGKQLEDGRTLSDYNIIAYMTLTLHLKLRAA
notes: Ubiquitin mutein, monomer

molecular target: T1, FOLR1 on transfected HEK293-FOLR1-cells (human, UniProt P15328 25-234); experiment: flow cytometry on HEK293-FOLR1-cells, 0 h in 100% mouse serum
T1 construct: whole, on cells; also called surface-exposed FOLR1; folate receptor alpha
Description: (§1) Flow cytometry was used to analyze the specific interaction of FOLR1 binding proteins with surface-exposed FOLR1 but not with FOLR2. Transfected HEK293-FOLR1-cells, HEK293-FOLR2-cells, and empty vector control HEK293-pEntry-cells were trypsinized and resuspended in medium containing FCS, washed and stained in pre-cooled FACS blocking buffer. A cell concentration of 1×10⁶ cells/ml was prepared for cell staining and 100 μl/well were filled into a 96 well plate (Greiner) in triplicate for each cell line. 50 nM of Affilin proteins or monoclonal anti-human-FOLR1 antibody (clone LK 26; BioLegend, 908301) as positive control or anti-human-FOLR2 antibody (clone EM35; Sysmex, BD029864) were added to FOLR overexpressing and control cells. After 45 min the supernatants were removed, and 100 μl/well rabbit anti-Strep-Tag antibody (GenScript; A00626), 1:300 diluted in FACS blocking buffer, were added. Anti-FOLR1 antibody and anti-FOLR2 antibodies were detected with anti-mouse-IgG-Alexa 488 (Invitrogen; A-10680) with a dilution of 1:1000. After removal of the primary antibody, goat anti-rabbit IgG Alexa Fluor 488 antibody (Invitrogen; A11008) was applied in a 1:1000 dilution. Flow cytometry measurement was conducted on the Guava easyCyte 5HT device (Merck-Millipore) at excitation wavelength 488 nm and emission wavelength 520 nm.
(§2) The stability of FOLR1 binding proteins in the presence of serum was analyzed. […] 100 μl Affilin-serum solution was used to analyze the serum stability on HEK293-FOLR1-cells by FACS as described above (example 6). FACS analysis confirmed the binding of Affilin proteins to FOLR1 even after 24 h incubation in mouse serum (see Table 5). Further FOLR1 proteins were tested (results not shown) and binding to FOLR1 was confirmed even in the presence of serum.

In order of falling EC50:
1. B5  0.49 nM
2. B6  0.44 nM
3. B1  0.35 nM
4. B4  0.34 nM
5. B3  0.33 nM
6. B2  0.3 nM

molecular target: T1, FOLR1 on transfected HEK293-FOLR1-cells; experiment: flow cytometry on HEK293-FOLR1-cells; EC50 after 24 h in mouse serum against 0 h
Description: as §1, §2

In order of falling “Decrease (fold)” value:
1. B3  1.9 fold
2. B6  1.5 fold
3. B5  1.4 fold
4. B1  1.3 fold
5. B2  1.2 fold
6. B4  1 fold

molecular target: T1, FOLR1 on transfected HEK293-FOLR1-cells; experiment: flow cytometry on HEK293-FOLR1-cells, after 24 h in 100% mouse serum at 37 C
Description: as §1, §2

In order of rising EC50:
1. B4  0.31 nM
2. B2  0.37 nM
3. B1  0.45 nM
4. B3  0.62 nM
5. B6  0.65 nM
6. B5  0.7 nM

molecular target: T2, FOLR1-Fc (human FOLR1 residues 25-234 fused with the Fc-fragment of human IgG1 followed by a His-tag at the … (human, UniProt P15328 25-234)); experiment: ELISA on immobilized FOLR1-Fc; Kd after 24 h in mouse serum against 0 h
T2 construct: range 25-234; Made in Expi293F cells; also called FOLR1-Fc-His; folate receptor alpha; not shown: Fc-fragment of human IgG1; C-terminal His-tag
Description: (§3) High binding plates (Greiner, 781061) were immobilized with 0.1-2.5 μg/ml FOLR1-Fc over night at 4° C. Dilution series of 197556a (SEQ ID NO: 1 with C-terminal sequence […]), 202521 (SEQ ID NO: 30 with C-terminal coupling sequence “SAC”; see SEQ ID NO: 44) and 202521-Dota-Lu (SEQ ID NO: 30 with C-terminal coupling sequence “SAC” and Dota labeled with Lutetium Lu³⁺) were incubated in 100% mouse serum overnight at 37° C. ELISA-plates were washed with 1×PBS and blocked with 3% BSA/0.5% Tween/PBS 2 h at RT. Dilution series after 0 h or 24 h incubation in the presence of serum were incubated on ELISA-plates 1 h at rt. After washing with PBST, wells were incubated with biotinylated anti-ubiquitin-antibody (1:1000) 1 h at rt. The binding was visualized with Streptavidin-HRP (1:10.000).

In order of falling “Decrease (fold)” value:
1. B7  1.5 fold
2. B8  0.9 fold

molecular target: T2, FOLR1-Fc (human FOLR1 residues 25-234 …); experiment: SPR (Biacore 3000), FOLR1-Fc immobilized on CM5 chip, Langmuir 1:1
Text: A CM5 sensor chip (GE Healthcare) was equilibrated with SPR running buffer. Surface-exposed carboxylic groups were activated by passing a mixture of EDC and NHS to yield reactive ester groups. 700-1500 RU FOLR1 (on-ligand) were immobilized on a flow cell. A flow cell without ligand was used as reference. Injection of ethanolamine after ligand immobilization was used to block unreacted NHS groups. Upon ligand binding, protein analyte was accumulated on the surface increasing the refractive index. This change in the refractive index was measured in real time and plotted as response or resonance units (RU) versus time. The analytes were applied to the chip in serial dilutions with a flow rate of 30 μl/min. The association was performed for 30 seconds and the dissociation for 60 seconds. After each run, the chip surface was regenerated with 30 μl regeneration buffer and equilibrated with running buffer. The control samples were applied to the matrix with a flow rate of 30 μl/min, while they associate for 60 seconds and dissociate for 120 seconds. Regeneration and re-equilibration were performed as previously mentioned. Binding studies were carried out by the use of the Biacore 3000 (GE Healthcare); data evaluation was operated via the BIAevaluation 3.0 software, provided by the manufacturer, by the use of the Langmuir 1:1 model (RI=0).

In order of rising Kd:
1. B18  0.00417 nM
2. B17  0.00742 nM
3. B9  0.0187 nM
4. B13  0.0261 nM
5. B15  0.0291 nM
6. B10  0.0309 nM
7. B12  0.0312 nM
8. B4  0.0474 nM
9. B6  0.0849 nM
10. B3  0.151 nM
11. B5  0.206 nM
12. B11  0.207 nM
13. B14  2.15 nM
14. B16  16.8 nM
15. B19  388 nM

molecular target: T2, FOLR1-Fc (human FOLR1 residues 25-234 …); experiment: ELISA on immobilized FOLR1-Fc, after 24 h in 100% mouse serum at 37 C
Description: as §3

In order of falling Kd:
1. B7  0.11 nM
2. B8  0.046 nM

molecular target: T2, FOLR1-Fc (human FOLR1 residues 25-234 …); experiment: ELISA on immobilized FOLR1-Fc, 0 h in 100% mouse serum
Description: as §3

In order of rising Kd:
1. B8  0.05 nM
2. B7  0.074 nM
